# According to the supplement of paper PMC11417369:
# The list shows a part of the results.
# Test system: PfAP2-HC AP2 domain (GST-tagged)
# Assay: gcPBM binding intensity (ln(normalized median fluorescence intensity)); higher = stronger DNA binding
# Procedure, shortened: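 The highest Masliner-normalised natural-log median intensity across replicate spots of either probe orientation is reported as binding intensity. GST-tagged P. falciparum DNA-binding domains expressed in E. coli were applied for 1 h to an Agilent 4 × 180k array of primer-extended double-stranded 36-bp intergenic genomic probes plus negative controls, and bound protein was detected with Alexa488 anti-GST antibody and scanned at 488 nm.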
row,Sequence,gcPBM binding intensity (ln)
1,TATTTTTATAATATATGTACATATATATATATATTA [XGTACX_site5343],9.69
2,TTTTTTTTTTTTTTTTGTACGTAAAAAAATATATAC [XGTACX_site1290],9.11
3,TTGTTATATTACAGTAGTACATTTAAAATCTACTAC [XGTACX_site2620],9.62
4,ATTTTTATTTACAACCCCAAAAAGGAAAAACATAAA [CACACA_negctrl_site1169],9.5
5,AATATTTATACTATAACACACATACAGACAAAAAAA [CACACA_site6396],9.94
6,TTACATTATATACATACACACCCACCCACAAAAAAA [CACACA_site8187],10.3
7,AAGACAATATATGCAGTGCATATACATACATATATA,9.7
8,GCATAATATACTCTTACACACCATTTCTAAATACAT [CACACA_site4912],9.99
9,AAAAAAAAAAAAAAAAGTACGTATTTTTTTTAAAAT [XGTACX_site2654],9.49
10,ACAGGAAAAAACAATTGTACATGTATATATATATAT [XGTACX_site7677],10
11,ATATATATATATATATGTACATATTTTATTTGAAAT [XGTACX_site7411],9.83
12,CAAAATAAAAATTAATGTACATAAAAAATGAATATA [XGTACX_site1085],9.88
13,AAAAAAATAATTTGTAGTACGATTCAATGAAAAGGC [XGTACX_site1287],9.92
14,ATACATATATACATATGTACATATATATATATATAT [XGTACX_site8206],9.77
15,TTGAAAATGAAAAAATGTACTTAAAAAAAAGGAACA [XGTACX_site8664],9.73
16,TCTTTGAATTTTTTAACACACACATGGGTGGATATA [CACACA_site8474],9.84
17,ATAAAATTGTATAACTGTACATATATATATATATAT [XGTACX_site5596],9.91
18,CCCACAAAGGAATATACACACATATATATATATATA [CACACA_site4091],9.68
19,TAAATATTTTTTTAGACACACATATATCTATGATAT [CACACA_site1107],9.66
20,ATGCTATATTAAAAACGTACAAACTGTTTAGAAAAA [XGTACX_site8943],9.59
21,TTTTTTCTTAAAGACATATATTTATTTGGTAAAACA [XGTACX_negctrl_site243],9.39
22,GGATATAACAGACACACACACACATATAAATATATT [CACACA_site7866],10.6
23,TATTTTCTTTTTCTTGTACACACATAATATGGATGA [CACACA_site8168],9.73

row,Sequence,gcPBM binding intensity (ln)
1,TATTTACATTTATGTGCACACATTCCATTTGAAAGT [CACACA_site1954],9.97
2,AATAGAAAAAAAAAATGTACACATATAAAAGCATAT [XGTACX_site6306],10.2
3,CGGACATACATAGGAACATGCAAAATTTTTTATTTT [TGCATGCA_site575],9.48
4,TAAAAGAATAAAAGTAGTACTTTTTTTTATATTAGA [XGTACX_site368],9.46
5,AAAAAGTGACTCCTTACACACTTTACATAATTTAGT [CACACA_site4606],9.81
6,TCTTTTTTTTTTTATTGTACAAGAAAAGGAAAAAAT [XGTACX_site3717],9.18
7,ATATTTTTATATTAGTGTACTTATTATAATGTATAG [XGTACX_site8185],9.62
8,ATATAATATATATGGTGTACATTTTTTAGTGCTATT [XGTACX_site1662],9.68
9,AGTACATTTTTTTTAATAGGAAAAAAAATATTTATT [TGCATGCA_negctrl_site575],9.4
10,AAGTATTATTTTTATGCATGTGAAGTGCAAAATAAA [TGCATGCA_site198],9.54
11,ATAATATGTAATATTACACACAATTCATCATTTTTT [CACACA_site3159],9.94
12,ATATACACCGTTGAATGTACATAAATAATATTAATA [XGTACX_site2893],9.73
13,ACTTTATATTTTGAACGTACAAAAAAAAAATTATGT [XGTACX_site5588],9.41
14,AACCATTAATTCTCTACACACTTTTATTTTATTTAG [CACACA_site1769],9.89
15,GCACATATATACATACATACATACATACATATGTAT [TGCATGCA_negctrl_site95],10.2
16,ATAAAGATTTTCCAAGCATGCCACATAGTGAGATAC [TGCATGCA_site594],9.77
17,ATCATAAAAGTATACACACATACATACATATGTACA [CACACA_site2641],9.94
18,TTATATATTTTTACCATACACACATATAATAAATAT [CACACA_site3721],9.81
19,TAAATATATATATATGTACACACTCCAATACATATA [CACACA_site8858],9.88
20,TATATATATATTATATGTACATATTCCTATATATAC [XGTACX_site7071],9.77
21,TCCTTATAAATATATATATAATATATATATATATAT [CACACA_negctrl_site293],9.47
22,TATATATATATTTATACACACATTAGTGTAGACATG [CACACA_site8964],9.71
